Reference: PubChem BioAssay AID493208 (National Center for Advancing Translational Sciences (NCATS), 2011)
The campaign covered roughly 44,000 compounds. About 340 (0.77%) were called active. Not shown: some 5% with an inconclusive outcome. The call rests on the fitted dose curve; in most records, active means well fitted inhibition curve with a large enough effect; inconclusive means small, poorly fitted or top-dose-only effect; inactive means flat fitted curve, though single readings scatter. The list shows a part of the results.

Experiment: Acumen qHTS Assay for Inhibitors of the mTORC1 Signaling Pathway in MEF (Tsc2-/-, p53-/-) Cells: Sytravon;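 further: plate controls were DMSO for no effect and rapamycin for full effect; nearly all actives have a fitted effect of over 50% in size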
Settings: phospho-rpS6 immunofluorescence/PI, 24 h; series mostly up to 38.3 µM; activity change, negative = inhibition: at the top concentration
Method in brief: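 Plate MEFs (Tsc2-/-, p53-/-, empty vector) in DMEM/10% FBS; after 24 h add compound, incubate 24 h at 37 degree Celsius; fix in PFA/TX-100, block, stain phospho-rpS6 and 10 uM PI; scan at 488 nm; report % positive cells.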

SMILES	activity change, negative = inhibition
O=C(CCC1N=C2c3ccccc3N=C(SCC(=O)Nc3ccccc3F)N2C1=O)NCc1ccco1 (configuration not stated)	inactive: -2.54%
Cc1ccc(NC(=O)CN(C)S(=O)(=O)c2ccc3c(c2)n(C)c(=O)c(=O)n3C)c(C)c1	inactive: 10.9%
CCc1ccc(CN2C(=O)c3ccccc3C2C(=O)NC2CCCCCC2)cc1 (configuration not stated)	inactive: 1.41%
CC(C)(C)C(=O)Nc1ccc(-c2nc3ccccc3s2)cc1	inactive: 2.97%
CCOc1ccc(-c2c(C)nn3c(C)c(C(=O)NCc4cccc(OC)c4)cnc23)cc1OCC	inactive: -10.7%
Cc1oc(-c2ccccc2)nc1Cn1c(SCc2cccc(C(F)(F)F)c2)nc2cccnc21	inactive: 1.27%
CCc1ccccc1Nc1nn2c(=O)c3ccc(C(=O)NC4CCC(C)CC4)cc3nc2s1 (configuration not stated)	inactive: 0%
CC(=O)Nc1ccc(S(=O)(=O)NCc2ccc3c(c2)CCN3C(C)=O)cc1	inactive: -11.8%
CCOc1cc(C(=O)N(Cc2nc(-c3ccc(C)cc3)no2)C(C)C)cc(OCC)c1OCC	inactive: -2.43%
COc1ccc(-n2ncc(C(=O)N3CCN(Cc4ccccc4)CC3)c2C2CCN(C(=O)OC(C)(C)C)CC2)cc1	inactive: 3.03%
CCc1cnc2c(c1SCc1c(F)cccc1Cl)c(=O)n(C)c(=O)n2C	inactive: 1.77%
Cc1nn(C(=O)COc2ccc(Cl)cc2)c(C)c1Sc1ccccc1	inactive: -18.7%
CCOC(=O)c1ccc(NC(=O)CC2C(=O)N(c3ccccc3)C(=O)N2Cc2ccc(C)cc2)cc1 (configuration not stated)	inactive: 3.91%
COc1ccc(CCNC(=O)CCCn2c(=O)c3ccccc3n(CC(=O)Nc3cccc(C)c3)c2=O)cc1OC	inactive: 0.312%
COc1ccc(C(=O)Nc2cnc3ccccn3c2=O)cc1	inactive: 3.91%
CCOc1ccc(Nc2oc(-c3ccc(COc4ccc(OC)cc4)o3)nc2C#N)cc1	inactive: -6.83%
CCOC(=O)C1CCN(c2cc3c(cc2NC(=O)c2ccc(Cl)cc2)n(C)c(=O)n3C)CC1	inactive: 1.98%
Cc1cc(Nc2ccccc2F)n2nc(-c3ccccc3)nc2n1	inactive: -1.46%
COc1ccc(S(=O)(=O)NCc2ccc3c(c2)CCN3C(=O)c2ccccc2)cc1OC	inactive: 0.236%
COC(=O)c1ccc(Cl)cc1NC(=O)N1CC2CCCN2c2ccccc21 (configuration not stated)	inactive: -8.15%
COc1ccc(NC(=O)CN2C(=O)CCn3nc(-c4cccn4C)cc32)cc1	inactive: 0.563%
Cc1cc(C)c(Nc2nc3ccccc3n3c(C)nnc23)c(C)c1	inactive: -1.43%
Cc1ccc(NC(=O)C(=O)NCC(c2cccnc2)N2CCN(Cc3ccccc3)CC2)cc1C (configuration not stated)	inactive: 5.35%
CCN(CC)C(=O)Cn1c(=O)cc(C)c2c(C)nn(-c3cccc(Cl)c3C)c21	inactive: -12.1%

SMILES	activity change, negative = inhibition
COc1cccc(CNC(=O)C2CCC(CNS(=O)(=O)c3ccc4c(c3)CCCC(=O)N4)CC2)c1 (configuration not stated)	inactive: 1.41%
Cc1ccc(NC(=O)CSc2nnc3scc(-c4ccc(Cl)cc4)n23)cc1	inactive: 1.92%
CCN(CC)CCCNc1oc(/C=C/c2ccc(OC)c(OC)c2)nc1C#N	inactive: -5.43%
COc1ccc(NC(=O)Cn2cc(S(=O)(=O)N3CCN(c4ccccc4F)CC3)c3ccccc3c2=O)cc1Cl	inactive: 0.667%
CCOC(=O)C1=C(CN2CCN(c3ccc(OC)cc3)CC2)NC(=O)NC1c1ccc(OC)cc1 (configuration not stated)	inactive: -3.1%
CNc1c(NC(=O)c2ccc(OC)c(OC)c2)c(=O)oc2ccccc12	inactive: -0.266%
CCOc1ccc(-c2cc(C(=O)N3CCN(c4cc(Cl)ccc4C)CC3)c3ccccc3n2)cc1	inactive: 7.7%
Cc1cc(C)cc(NC(=O)NCCc2c(C)nn(C)c2C)c1	inactive: 0%
Cc1cc2c(cc1S(=O)(=O)CCC(=O)N1CCC(C)CC1)OCC(=O)N2	inactive: -21.3%
Cc1nc(N2CCCC2)c2c(C(=O)N3CCN(c4ccccc4)CC3)c(C)oc2n1	inactive: 5.84%
CCC(Cn1nnc2ccccc2c1=O)NC(=O)Nc1cc(C)cc(C)c1 (configuration not stated)	inactive: 1.89%
CC(C)C(=O)Nc1nnc2n1CCS2	inactive: -6.23%
CCOc1ccc(CNC(=O)c2cccc(NC(=O)N3CCSc4ncccc43)c2)cc1OC	inactive: -3.88%
CCc1ccc(C(=O)c2cn(CC(=O)Nc3ccc(Cl)cc3)c3cc4c(cc3c2=O)OCO4)cc1	inactive: 1.67%
CCOc1cc2sc(N3CCC(C(=O)Nc4ccc(CC)cc4)CC3)nc2cc1Br	inactive: 0.695%
CC(=O)N1CCCc2cc(S(=O)(=O)N3CCCC(C(=O)N4CCN(c5cccc(Cl)c5)CC4)C3)ccc21 (configuration not stated)	inactive: 0.307%
Cc1ccc(S(=O)(=O)n2nc(C)c(S(=O)(=O)N3CCCCCC3)c2C)cc1	inactive: 5.59%
Cc1ccc(C)c(CSc2nnc3[nH]c(=O)cc(C)n23)c1	inactive: -0.363%
COc1ccc(C)cc1NC(=O)c1noc2c1CSc1ccccc1-2	inactive: 1.58%
COc1ccc(C2C(C(=O)Nc3ccccc3)=C(C)Nc3c(C(=O)Nc4ccccc4)cnn32)cc1 (configuration not stated)	inactive: 1.59%
COCCNC(=O)CCC(=O)NNc1nc2ccccc2c2nc(C)nn12	inactive: -7.57%
CS(=O)(=O)N1CCc2cc(C(=O)N3CCN(c4cccc(Cl)c4)CC3)ccc21	inactive: -4.61%
Cc1ccc(NC(=O)C2(c3cccs3)CCOCC2)cc1Cl	inactive: -3.86%
